Scores whose standard error is large were omitted. Not listed are two conditions whose scores span a narrow range. In variant names, del marks residues removed and ins residues inserted between the two positions. For part of these data: The concentration of ogerin is not given here.
B1: GPR68, Q15743 (parent)
chain: MGNITADNSSMSCTIDHTIHQTLAPVVYVTVLVVGFPANCLSLYFGYLQIKARNELGVYLCNLTVADLFYICSLPFWLQYVLQHDNWSHGDLSCQVCGILLYENIYISVGFLCCISVDRYLAVAHPFRFHQFRTLKAAVGVSVVIWAKELLTSIYFLMHEEVIEDENQHRVCFEHYPIQAWQRAINYYRFLVGFLFPICLLLASYQGILRAVRRSHGTQKSRKDQIQRLVLSTVVIFLACFLPYHVLLLVRSVWEASCDFAKGVFNAYHFSLLLTSFNCVADPVLYCFVSETTHRDLARLRGACLAFLTCSRTGRAREAYPLGAPEASGKSGAQGEEPELLTKLHPAFQTPNSPGSGGFPTGRLA

What was measured:
[1] = variants of: B1; experiment: cAMP reporter score (Enrich2 score, wild type = 0); higher = more signal; HEK293T, FACS bins
[2] = variants of: B1; experiment: surface expression score (Enrich2 score, wild type = 0); higher = more signal; HEK293T, FACS bins

Variant	cAMP reporter score ([1]; pH 5.5)	cAMP reporter score ([1]; pH 6)	cAMP reporter score ([1]; pH 6, modulator: ogerin)	cAMP reporter score ([1]; pH 6.5, modulator: ogerin)	surface expression score [2]
T309K	-0.221	0.079	-0.639	-0.085	-1.05
T309E	1.54	-0.439	0.86	0.87	0.23
T309F	0.695	-0.547	0.343	0.436	-0.281
T309C	1.03	–	1.17	0.83	0.87
T309V	-0.528	-0.432	-0.895	-1.65	0.384
T309D	0.659	0.377	0.694	1.29	0.48
T309H	0.013	1.46	0.199	0.742	-0.186
T309Q	-0.154	–	-0.349	1.56	-0.3
T309I	-0.553	-0.253	-0.707	-0.497	-0.771
T309Y	0.69	-0.076	0.312	0.195	-1.01
C304_L305insGSG	0.198	–	0.496	0.508	0.368
A306_F307insGSG	0.842	0.248	0.937	0.193	0.456
S311_R312insGSG	0.826	2.07	1.22	2.41	0.992
T313Q	1.05	–	0.847	1.15	0.725
T313C	-0.573	-0.74	-0.008	-0.39	-0.35
T313N	0.209	-0.622	0.538	0.548	-0.103
T313M	0.082	–	0.541	0.031	-0.129
T313K	0.019	0.131	0.205	0.377	0.054
T313H	0.932	–	0.482	1.53	0.921
T313D	-0.067	0.321	-0.783	0.21	0.267
T313R	0.053	–	-0.076	-0.778	0.548

Variant	cAMP reporter score ([1]; pH 5.5)	cAMP reporter score ([1]; pH 6)	cAMP reporter score ([1]; pH 6, modulator: ogerin)	cAMP reporter score ([1]; pH 6.5, modulator: ogerin)	surface expression score [2]
T313S	0.51	-0.322	0.613	-0.205	0.065
T313F	-0.582	-1.14	-0.249	-0.452	-0.05
T313I	0.077	–	-0.171	-0.498	-0.763
T313P	-0.881	–	-0.176	-0.692	–
T313G	-0.007	-0.207	-0.58	-0.116	0.34
T313W	-0.607	-0.714	-0.724	-0.477	-0.704
T313A	-0.158	-0.371	-0.232	-0.849	-0.6
T313E	0.316	0.653	0.19	0.63	-0.139
T313V	0.501	0.24	0.346	0.687	0.174
T313L	-0.5	-1.1	-0.181	-0.636	-0.421
T313del	-0.597	0.294	0.583	0.982	0.05
L308_T309insGS	0.865	4.16	2.27	2.31	0.053
R312del	0.13	1.05	-0.263	0.115	-0.7
C304_L305del	-0.219	-0.614	-0.122	-0.979	-0.143
A306del	-0.124	-0.933	-0.158	-0.717	-0.931
A306_F307insG	0.102	-0.361	0.385	0.385	0.121
L308_T309insGSG	0.47	0.587	0.918	2.2	0.664
C304S	-0.453	-0.615	-0.201	-0.567	-0.414
C304Q	-0.188	-1.5	-0.459	-1.11	-0.187
C304M	-0.296	-0.749	-0.499	0.7	-0.389
C304T	0.367	0.24	1.06	-0.07	0.19

Variant	cAMP reporter score ([1]; pH 5.5)	cAMP reporter score ([1]; pH 6)	cAMP reporter score ([1]; pH 6, modulator: ogerin)	cAMP reporter score ([1]; pH 6.5, modulator: ogerin)	surface expression score [2]
C304V	0.629	0.474	1.1	0.701	0.489
C304L	0.596	–	–	1.22	0.663
C304W	-0.392	-0.555	-0.523	-0.198	0.14
C304N	0.474	-0.653	-0.55	-1.21	0.254
C304P	-1.57	-1.33	-1.62	-1.11	-0.671
C304Y	-0.639	-0.247	-0.655	-0.054	-0.834
C304I	-0.858	-0.497	-0.509	0.015	-0.565
C304K	-0.18	–	-0.176	-0.539	-0.806
C310del	-0.176	1.56	-0.002	0.957	-0.475
C310_S311insGS	-0.64	-0.554	0.318	0.415	0.716
A306_F307insGS	-0.186	-0.597	-0.607	-0.82	-1.13
C304del	-0.241	-0.303	-0.518	-0.678	0.259
A306_L308del	0.391	-0.23	0.174	0.316	-0.179
T313_G314insGSG	0.095	0.352	0.27	0.134	0.359
S311_R312del	-0.635	-0.548	0.22	-0.332	-1.04
C304_L305insG	0.197	0.355	-0.015	-0.211	-0.974
S311_R312insGS	0.65	0.513	1.16	1.22	0.646
F307del	0.266	0.734	0.478	0.328	-0.091
T313_G314insG	1.05	1.06	0.401	0.625	1.16
L305_A306insG	1.01	0.759	0.993	1.15	0.406

Source: the GPR68 mutational scans of Howard et al. (2025)
